# PMC4336329 (PLoS ONE, 2015)
# Out of some 310,000 compounds screened, about 14,000 (4.5%) showed an effect of 50% or more. Effects have a minus sign here. The list shows a part of the results.
# Molecular target: human ether-à-go-go-related gene (hERG) potassium channel (human, UniProt Q12809)
# Test: primary screen, population patch clamp on CHO cells stably expressing hERG
# 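Also: peak tail current of the secondary pulse compared with the same well before compound.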
# human ether-à-go-go-related gene (hERG) potassium channel, sequence (Q12809 whole entry, looked up): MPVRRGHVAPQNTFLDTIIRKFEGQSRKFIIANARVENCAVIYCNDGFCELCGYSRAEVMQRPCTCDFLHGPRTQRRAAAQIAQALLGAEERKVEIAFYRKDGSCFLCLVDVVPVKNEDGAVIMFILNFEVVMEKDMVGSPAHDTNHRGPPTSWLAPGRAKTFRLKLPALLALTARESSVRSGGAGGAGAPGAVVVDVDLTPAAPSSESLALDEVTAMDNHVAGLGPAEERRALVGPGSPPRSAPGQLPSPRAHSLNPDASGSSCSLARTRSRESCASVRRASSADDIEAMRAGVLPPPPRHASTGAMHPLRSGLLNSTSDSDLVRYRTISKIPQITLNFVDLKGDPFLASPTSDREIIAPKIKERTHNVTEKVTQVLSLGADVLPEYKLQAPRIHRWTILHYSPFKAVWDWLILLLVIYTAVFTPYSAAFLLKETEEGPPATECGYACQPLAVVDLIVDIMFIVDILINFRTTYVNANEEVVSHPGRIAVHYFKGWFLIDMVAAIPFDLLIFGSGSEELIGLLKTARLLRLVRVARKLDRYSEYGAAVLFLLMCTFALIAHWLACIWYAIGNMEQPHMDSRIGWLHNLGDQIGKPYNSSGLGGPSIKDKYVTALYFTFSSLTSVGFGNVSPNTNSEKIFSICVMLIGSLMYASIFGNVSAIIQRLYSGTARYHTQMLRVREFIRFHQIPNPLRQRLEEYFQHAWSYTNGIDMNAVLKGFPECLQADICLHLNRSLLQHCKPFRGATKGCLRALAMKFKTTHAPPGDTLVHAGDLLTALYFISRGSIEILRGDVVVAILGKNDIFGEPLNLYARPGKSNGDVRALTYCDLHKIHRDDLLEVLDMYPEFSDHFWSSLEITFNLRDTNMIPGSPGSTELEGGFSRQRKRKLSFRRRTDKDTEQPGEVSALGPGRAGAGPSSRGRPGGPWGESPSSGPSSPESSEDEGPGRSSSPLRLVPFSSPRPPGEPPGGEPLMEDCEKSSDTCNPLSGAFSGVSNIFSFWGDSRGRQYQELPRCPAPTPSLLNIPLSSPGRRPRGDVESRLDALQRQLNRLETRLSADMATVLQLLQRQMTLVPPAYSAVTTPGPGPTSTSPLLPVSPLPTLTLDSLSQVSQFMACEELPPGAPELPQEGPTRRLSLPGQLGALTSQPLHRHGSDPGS
row,Structure (SMILES),"hERG current change (%, negative = inhibition) at 10uM [%]"
1,COc1ccc(C)cc1-n1c(-c2ccncc2)n[nH]c1=S,11.3
2,CCN1C(=C(C#N)C#N)C=Cc2cc(C)ccc21,15.7
3,Cc1ccc(OC(C)C(=O)N2CC(=O)Nc3ccccc32)cc1 (stereo not shown),-67.7
4,CCCC(=O)Nc1cccc(NC(=O)c2cccc([N+](=O)[O-])c2C)c1,-12.8
5,Cc1cc(C(=O)NCc2cc(C(=O)O)oc2C)c(C)o1,4.42
6,Cc1noc(C)c1COc1ccccc1C(=O)N1CCN(c2cccc(Cl)c2)CC1,-30.6
7,CN(C[C@H](Cc1ccccc1)N(C[C@H](c1ccccc1)N(CCc1ccccc1)N=O)N=O)N=O.[Na+],-2.64
8,CCOc1ccc(NC(=O)C2CC(=O)OC2c2ccccc2)cc1 (stereo not shown),6.5
9,COc1ccc(CNCC(O)(c2ccc(F)cc2)c2ccc(F)cc2)cc1OC,-62.1
10,Cc1cccc(NC(=O)CN(CC2CCCO2)C(=O)c2oc3ccccc3c2C)c1C (stereo not shown),-11.3
11,CCOC(=O)Cc1cnc(NC(=O)Cn2nnc(-c3ccc(OCC)cc3)n2)s1,-7.58
12,Cc1ccc(S(=O)(=O)N(C)Cc2cc3cc(C)ccc3[nH]c2=O)cc1,-3.76
13,Cc1ccc2nc(SCC(=O)NCc3cccs3)[nH]c2c1,-15.7
14,CCCCn1c(=O)c(CCC(=O)OCC(=O)NC(=O)NCCC(C)C)nc2ccccc21,-9.31
15,Brc1ccc([C@H]2CN3CCSC3=N2)cc1.O=C(O)C(=O)O,-35.7
16,O=C(COC(=O)/C=C/c1cccc([N+](=O)[O-])c1)NCc1ccco1,29.8
17,Cc1sc2ncn(CC(=O)NCCCC(=O)N3CCN(c4ncccn4)CC3)c(=O)c2c1C,7.64
18,COc1ccc(NC(=O)c2cccc3c2C(=O)c2ccc(-c4cnc(OC)nc4)cc2S3(=O)=O)cc1,11.8
19,CCOC(=O)C1(CCOc2ccccc2)CCN(C(=O)CCSC)CC1,-42
20,CC(=O)c1ccc(N2CCN(C(=O)c3ccco3)CC2)c(F)c1,-25.2
21,Cn1c2ccc(F)cc2c2ncn(CCN3CCOCC3)c(=O)c21,-43.1
22,CCC(C)C(NC(=O)c1ccccc1NC(=O)c1ccccc1)C(=O)O (stereo not shown),-10.2

row,Structure (SMILES),"hERG current change (%, negative = inhibition) at 10uM [%]"
1,Cc1c(C#N)sc2nc(-c3ccccc3)nc(N3CCCC3)c12,18.1
2,Cl.c1ccc(COc2ccccc2CNC23CC4CC(CC(C4)C2)C3)cc1,-83.6
3,CSc1ncccc1C(=O)OCC(=O)c1ccc(Br)s1,-1.56
4,Nc1nc2c(c(=O)[nH]1)C(c1ccccc1)C1=C(N2)c2ccccc2C1=O (stereo not shown),1.33
5,CCOc1ccccc1OCCCC(=O)Nc1ccc(Cl)c(S(=O)(=O)N2CCOCC2)c1,-26
6,O=C(O)CC1Sc2ccccc2NC1=O (stereo not shown),-13.4
7,COCCN=c1scc(-c2ccco2)n1/N=C/c1ccc(O)c(O)c1O,2.11
8,COC(=O)C1=C(C(=O)OC)[C@@H]2Nc3ccccc3[C@@]23C[C@@H](C(=O)OC)N(C(=O)c2cccs2)C3=N1,-39.8
9,CCOP(=O)(OCC)C(NC(=O)c1ccc(OC)cc1)C(Cl)(Cl)Cl (stereo not shown),0.174
10,CCOC(=O)N1CCN(C(=O)c2cccc(S(=O)(=O)Nc3ccc(Br)cc3)c2)CC1,-23.9
11,O=C(CC1(O)C(=O)Nc2ccccc21)c1cccnc1 (stereo not shown),2.13
12,Cn1c(CSc2nc3ccccc3s2)nnc1SCC(=O)NCc1cccnc1,-5.4
13,CCOC(=O)C1=C(COC(=O)Cc2c(F)cccc2Cl)NC(=O)NC1C (stereo not shown),-6.5
14,COc1cc(C(=O)N/N=C/c2ccccn2)cc(OC)c1OC,6.72
15,COC(=O)c1cccc(Nc2ncnc3sccc23)c1,-14.4
16,N#Cc1cccc(NC(=S)Nc2ccccc2)c1,-0.837
17,CCN(CC)CCNC(=O)c1ccc(NC(=O)c2cccc(S(=O)(=O)[N-]c3ccc(C)cc3)c2)cc1.[K+],-8.36
18,CC(C)(C)C(=O)CN1C(=O)NC(C)(Cc2ccc3c(c2)OCO3)C1=O (stereo not shown),6.06
19,CC(C)(C)NC(=O)CN(c1cccc([N+](=O)[O-])c1)S(=O)(=O)c1ccccc1,-11.5
20,COc1cc(/C=C2/NC(=O)NC2=O)cc(Br)c1OCc1ccc(C(=O)O)cc1,23.9
21,NS(=O)(=O)c1ccc(NC(=O)CCC(=O)c2ccc(Cl)s2)cc1,13.6
